# Data as given in the supplement of paper PMC10670038.
# Where “and” joins values, the source holds several entries; their conditions need not be identical. Equal entries are not always repeated. Structures can show the parent of a compound that is named as a salt. ± gives the standard deviation of the averaged measurements. The full ranking holds about 2,000 compounds; the median of “relative cell viability vs DMSO, compound + 0.2 uM CuET” is about 1, and the lowest 2% start at about 0.25. Some of the results follow.
# Tested on: TE10
# Experiment: relative cell viability vs DMSO, compound + 0.2 uM CuET (fraction); TE10 is an esophageal squamous carcinoma line; higher = less cytotoxic
# Conditions: 2 µM; co-treatment: CuET (bis(diethyldithiocarbamate)copper) 0.2 uM; 48 h
# Procedure: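 TE10 ESCC cells (1,000/well, 384-well plates) were treated with Selleck bioactive library compounds at 2 uM combined with 0.2 uM CuET (copper diethyldithiocarbamate) for 48 h. Viability was read by CellTiter-Glo and expressed relative to DMSO wells. Two technical replicates (A, B).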
row,SMILES,relative cell viability
1,CN(C)CCC(c1ccc(Cl)cc1)c1ccccn1 (stereo not drawn) [Chlorpheniramine Maleate],1.02 ± 0.07
2,COc1ccccc1N1CCN(CCN2C(=O)CC3(CCCC3)CC2=O)CC1,0.906 ± 0.22
3,OCC(O)CN1CCN(c2ccccc2)CC1 (stereo not drawn) [Dropropizine],1.16 ± 0.046
4,O[C@@H](COc1cccc2ncccc12)CN1CCN(C2c3ccccc3[C@@H]3[C@H](c4ccccc42)C3(F)F)CC1 (stereo partly drawn),1.04 ± 0.13
5,NS(=O)(=O)NCCNc1nonc1/C(=N/O)Nc1ccc(F)c(Br)c1,1.2 ± 0.14
6,COc1ccc(-c2coc3cc(O)cc(O)c3c2=O)cc1 [Biochanin A],1.112 ± 0.011
7,CC(C)(C)c1cc(/C=C(\C#N)C(N)=S)cc(C(C)(C)C)c1O [Tyrphostin AG 879],0.329 ± 0.31
8,COC1=CC(=O)C[C@@H](C)[C@]12Oc1c(Cl)c(OC)cc(OC)c1C2=O [Griseofulvin],0.972 ± 0.11
9,CCC(=O)NCC[C@@H]1CCc2ccc3c(c21)CCO3 [Ramelteon],1.22 ± 0.1
10,"CC[C@H](Nc1ncnc2[nH]cnc12)c1nc2cccc(F)c2c(=O)n1-c1ccccc1 [CAL-101 (Idelalisib, GS-1101)]",1.19 ± 0.13
11,O=C(NC1CCNCC1)c1n[nH]cc1NC(=O)c1c(Cl)cccc1Cl,0.848 and 0.838
12,CC(C)c1noc(N2CCC(COc3ccc(-c4ccc(S(C)(=O)=O)cc4)nc3)CC2)n1,0.931 ± 0.029
13,O=CN1CC/C(=C/c2ccc3c(c2)OCO3)C1=O,1.141 ± 0.011
14,CC(=O)NC(Cc1ccc(O)cc1)C(=O)NC(CCCN=C(N)N)C(=O)NC(Cc1ccccc1)C(N)=O (stereo not drawn),0.977 ± 0.19
15,CN(C)[C@@H](CCOc1cccc2ccccc12)c1ccccc1 [Dapoxetine HCl],1.02 ± 0.096
16,CCCC(CCC)C(=O)O [Valproic acid sodium salt (Sodium valproate)],1.325 ± 0.0097
17,CCCC(CCC)C(=O)O [Divalproex Sodium],1.13 ± 0.026
18,"CO[C@H]1C[C@@H]2CC[C@@H](C)[C@@](O)(O2)C(=O)C(=O)N2CCCC[C@H]2C(=O)O[C@H]([C@H](C)C[C@@H]2CC[C@@H](OP(C)(C)=O)[C@H](OC)C2)CC(=O)[C@H](C)/C=C(\C)[C@@H](O)[C@@H](OC)C(=O)[C@H](C)C[C@H](C)/C=C/C=C/C=C/1C [Ridaforolimus (Deforolimus, MK-8669)]",0.944 ± 0.072
19,O=S(=O)(N=Cc1c(O)ccc2ccccc12)c1cccs1,1.24 ± 0.058
20,CCS(=O)(=O)N1CCC([C@@H](C)n2c(C)c(C(=O)NCc3c(OC)cc(C)[nH]c3=O)c3ccccc32)CC1,1.217 ± 0.0054
21,CC[C@@H]1C(=O)N(C)c2cnc(Nc3ccc(C(=O)NC4CCN(C)CC4)cc3OC)nc2N1C1CCCC1,0.756 ± 0.045
22,O=C1CCc2c(ccc3ccccc23)O1 [Splitomicin],1.23 ± 0.028
23,Cc1c(OCC(F)(F)F)ccnc1C[S+]([O-])c1nc2ccccc2[nH]1 (stereo not drawn) [Lansoprazole],1.05 ± 0.048
24,c1ccc(Cn2c(-c3ccc(OCC(C4CCNCC4)n4c(-c5ccccc5)nc5ccccc54)cc3)nc3ccccc32)cc1 (stereo not drawn) [Deltarasin],0.9797 ± 0.0069
25,Cc1ccc(-n2[nH]c(C)c(N=Nc3cccc(-c4cccc(C(=O)O)c4)c3O)c2=O)cc1C [Eltrombopag],1.04 ± 0.1
26,Cc1ccc(-n2[nH]c(C)c(N=Nc3cccc(-c4cccc(C(=O)O)c4)c3O)c2=O)cc1C [Eltrombopag Olamine],1.145 ± 0.0091

row,SMILES,relative cell viability
1,NC1=N[C@@]2(c3cc(NC(=O)c4ccc(F)cn4)ccc3F)COC[C@H]2CS1,0.948 ± 0.07
2,COc1ccc(COc2cc3oc(=O)c4cc(C(C)O)ccc4c3cc2OC)cc1 (stereo not drawn) [Palomid 529 (P529)],0.99901 ± 0.00082
3,COc1ccc2cc1Oc1ccc(cc1)C[C@H]1c3c(cc4c(c3Oc3cc5c(cc3OC)CCN(C)[C@@H]5C2)OCO4)CCN1C [Cepharanthine],1.05 ± 0.088
4,CCCc1nn(C)c2c(=O)[nH]c(-c3cc(S(=O)(=O)N4CCN(C)CC4)ccc3OCC)nc12 [Sildenafil Citrate],1.25 ± 0.062
5,CN(C[C@@H]1COCCO1)S(=O)(=O)Nc1ccc2ccc3ncc(-c4cnn(C)c4)cc3c(=O)c2c1,0.8777 ± 0.0078
6,N#CC[C@H](C1CCCC1)n1cc(-c2ncnc3[nH]ccc23)cn1,0.996 and 0.9
7,CCOC(=O)CC(=O)N1CCSC1COc1ccccc1OC (stereo not drawn) [Moguisteine],1.08 ± 0.13
8,O=C(CSc1nc2c(c(=O)n1-c1ccccc1)SCC2)Nc1ccc(-c2ccccc2)cn1,0.861 ± 0.09
9,"O=C(c1ccc(F)c(F)c1Nc1ccc(I)cc1F)N1CC(O)([C@@H]2CCCCN2)C1 [Cobimetinib (GDC-0973, RG7420)]",0.881 ± 0.099
10,COc1cc2nc(N3CCCN(C)CC3)nc(NC3CCN(Cc4ccccc4)CC3)c2cc1OC,0.967 ± 0.019
11,O=S(=O)(c1cccc2cnccc12)N1CCCNCC1 [Fasudil (HA-1077) HCl],1.13 ± 0.071
12,CC(C)c1cnn2c(NCc3ccccc3)cc(NCCCCCCN)nc12,0.924 ± 0.018
13,CCC(C)C1OC2(CCC1C)CC1CC(CC=C(C)C(OC3CC(OC)C(OC4CC(OC)C(O)C(C)O4)C(C)O3)C(C)C=CC=C3COC4C(O)C(C)=CC(C(=O)O1)C34O)O2 (stereo not drawn) [Ivermectin],1.05 ± 0.11
14,CC(NCCc1ccc(O)cc1)C(O)c1ccc(O)cc1 (stereo not drawn) [Ritodrine HCl],1.19 ± 0.018
15,C[C@H](Nc1ncnc2nc[nH]c12)c1cc2cccc(Cl)c2c(=O)n1-c1ccccc1,1.16 ± 0.044
16,CC(C)(O)CC(=O)NCCn1ccc2ncnc(Nc3ccc(Oc4cccc(C(F)(F)F)c4)c(Cl)c3)c21,0.956 ± 0.033
17,Cc1c(C(=O)N2CCOc3ccc(-c4ccc(N)nc4)cc3C2)ccc(S(C)(=O)=O)c1F,1.08 ± 0.074
18,CCC(=O)O[C@]1(C(=O)SCF)[C@H](C)C[C@H]2[C@@H]3C[C@H](F)C4=CC(=O)C=C[C@]4(C)[C@@]3(F)[C@@H](O)C[C@@]21C [Fluticasone propionate],1.02 ± 0.043
19,Nc1ccc(/N=N/c2ccccc2)c(N)n1 [Phenazopyridine HCl],1.32 ± 0.06
20,CC(C)[C@H](O)C(=O)N[C@@H](C)C(=O)N[C@@H]1C(=O)N(C)CCc2ccccc21,1 ± 0.012
21,Cc1[nH]nc2ccc(-c3cncc(OC[C@@H](N)Cc4ccccc4)c3)cc12,0.577 ± 0.044
22,Nc1ccc(C(=O)O)c(O)c1 [Sodium 4-Aminosalicylate],0.901 ± 0.1
23,COc1cc(CCc2cc(NC(=O)c3ccc(N4CC(C)NC(C)C4)cc3)n[nH]2)cc(OC)c1 (stereo not drawn),1.16 ± 0.2
24,CCCCN1CCCC[C@H]1C(=O)Nc1c(C)cccc1C [Levobupivacaine HCl],1.01 ± 0.037
25,CNCc1ccc(C)c(NC(=O)c2ccc(Nc3nc(-c4ccccc4)c4ccccc4n3)cc2)c1,0.862 ± 0.065
26,CCCc1cc2c(N3CCN(C4=NCC(C)(C)S4)CC3)ncnc2s1 [MI-2 (Menin-MLL Inhibitor)],0.952 ± 0.058

row,SMILES,relative cell viability
1,Clc1ccc(C(c2ccccc2Cl)C(Cl)Cl)cc1 (stereo not drawn) [Mitotane],0.983 ± 0.06
2,O=C1O[C@H]([C@@H](O)CO)C(O)=C1O [Vitamin C],1.07 ± 0.04
3,Cc1cccc(C)c1OCC(=O)N[C@@H](Cc1ccccc1)[C@@H](O)C[C@H](Cc1ccccc1)NC(=O)[C@H](C(C)C)N1CCCNC1=O [Lopinavir],1.06 ± 0.015
4,O=C(O)Cn1nnc(-c2cc(N3CCC(Oc4cc(F)ccc4Br)CC3)no2)n1,1.28 ± 0.22
5,O=C(O)c1ccccc1Nc1cccc(C(F)(F)F)c1 [Flufenamic acid],1.12 ± 0.046
6,"Nc1cc(C(F)(F)F)c(-c2cc(N3CCOCC3)nc(N3CCOCC3)n2)cn1 [BKM120 (NVP-BKM120, Buparlisib)]",0.777 ± 0.066
7,"Cc1c(C(=O)Nc2ccc(N3C[C@@H](C)O[C@@H](C)C3)nc2)cccc1-c1ccc(OC(F)(F)F)cc1 [LDE225 (NVP-LDE225,Erismodegib)]",0.714 ± 0.081
8,Cc1ccc(Sc2cncc3sc(C(N)=O)cc23)cc1,1.06 ± 0.085
9,Cc1cnc(NC(=O)Nc2cc(Br)c(C)cc2OC[C@@H]2CNCCO2)cn1,0.643 ± 0.043
10,COc1cccc(-c2cc(F)ccc2C2Cc3nc(N)nc(C)c3C(=O)N2)n1 (stereo not drawn),0.704 ± 0.034
11,O=c1cc(N2CCOCC2)oc2c(-c3ccccc3)cccc12,1.073 ± 0.0058
12,CCCCC(=O)N(Cc1ccc(-c2ccccc2-c2nnn[nH]2)cc1)[C@H](C(=O)O)C(C)C [Valsartan],1.08 ± 0.029
13,COc1cc(Nc2ncc3c(n2)-c2ccc(Cl)cc2C(c2c(F)cccc2OC)=NC3)ccc1C(=O)O [Alisertib (MLN8237)],1.17 ± 0.23
14,CCc1ccc(/C=C2/SC(=S)NC2=O)cc1,1.15 ± 0.12
15,Cc1ccc(Nc2nccc(N(C)c3ccc4c(C)n(C)nc4c3)n2)cc1S(N)(=O)=O [Pazopanib],0.583 ± 0.59
16,Cc1ccc(Nc2nccc(N(C)c3ccc4c(C)n(C)nc4c3)n2)cc1S(N)(=O)=O [Pazopanib HCl],1.27 ± 0.12
17,OCC(CO)N[C@H]1C[C@](O)(CO)[C@@H](O)[C@H](O)[C@H]1O [Voglibose],1.12 ± 0.13
18,O=C(NNc1nc2cc(F)ccc2n2cccc12)c1cnccn1,1 ± 0.013
19,CCCCCCCCCCCCCCCc1cccc(O)c1C(=O)O [Anacardic Acid],1.26 ± 0.019
20,CC(C)c1cc(C(C)C)c(CC(=O)NS(=O)(=O)Oc2c(C(C)C)cccc2C(C)C)c(C(C)C)c1 [Avasimibe],1.03 ± 0.13
21,COC(=O)/C=C/C(=O)OC [Dimethyl Fumarate],1.17 ± 0.053
22,O=C(NC(Cc1cc(=O)[nH]c2ccccc12)C(=O)O)c1ccc(Cl)cc1 (stereo not drawn) [Rebamipide],1.18 ± 0.056
23,CC1(C)CC[C@]2(NC(=O)C(C)(F)F)CC[C@]3(C)[C@H](C(=O)C=C4[C@@]5(C)C=C(C#N)C(=O)C(C)(C)[C@@H]5CC[C@]43C)[C@@H]2C1 [Omaveloxolone (RTA-408)],0.822 ± 0.016
24,CCOC(=O)c1ccc(NC2CCCCC2)c(N)c1 [Ferrostatin-1 (Fer-1)],1.188 ± 0.011
25,O=C1c2c(O)ccc(O)c2C(=O)c2c(NCCNCCO)ccc(NCCNCCO)c21 [Mitoxantrone HCl],0.699 ± 0.0095
26,O=C1c2c(O)ccc(O)c2C(=O)c2c(NCCNCCO)ccc(NCCNCCO)c21 [Mitoxantrone],0.6073 ± 0.0024
